± gives the standard error. Variants at the background level are over-represented here.
B1: glmS ribozyme (parent)
chain: AUAAAAGCGCCAGAACUACAGAAAUGUAGUUGACGAGGAGGAGGUUUAUCGAAUUUUCGGCGGAUGCCUCCAAA

Experiments:
Details in all cases: with glucosamine-6-phosphate
glucosamine-6-phosphate [1] = variants of: B1; experiment: self-cleavage kobs at 640 uM GlcN6P; higher = faster cleavage; RNA array
How it was run: (§1)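 Glucosamine-6-phosphate (40 μM to 10 mM) in HEPES/KCl/Mg(OAc)2 buffer was flowed over sequenced MiSeq chips, and tiles were imaged over ~14 h. Barcoded ribozyme variants there had been transcribed in situ by E. coli RNA polymerase and were tracked through a hybridised Cy3 probe at 37 °C. One- or two-exponential decay fits to per-tile medians, normalised to baseline and to non-cleaving reference variants, gave kobs. kcat and KM came from weighted Michaelis–Menten fits across concentrations.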

glucosamine-6-phosphate [2] = variants of: B1; experiment: self-cleavage kobs at 2500 uM GlcN6P; higher = faster cleavage; RNA array
How it was run: as §1

glucosamine-6-phosphate [3] = variants of: B1; experiment: self-cleavage kobs at 10000 uM GlcN6P; higher = faster cleavage; RNA array
How it was run: as §1

glucosamine-6-phosphate [4] = variants of: B1; experiment: self-cleavage kobs at 160 uM GlcN6P; higher = faster cleavage; RNA array
How it was run: as §1

| Variant | self-cleavage kobs at 640 uM GlcN6P (glucosamine-6-phosphate [1]) [s⁻¹] | self-cleavage kobs at 2500 uM GlcN6P (glucosamine-6-phosphate [2]) [s⁻¹] | self-cleavage kobs at 10000 uM GlcN6P (glucosamine-6-phosphate [3]) [s⁻¹] | self-cleavage kobs at 160 uM GlcN6P (glucosamine-6-phosphate [4]) [s⁻¹] |
| --- | --- | --- | --- | --- |
| A14G A36U C68A | < 1e-05 | – | – | – |
| C16A U46C C68A | < 1e-05 | – | – | – |
| A14C G29A G59A G60U C68U | < 1e-05 | – | – | – |
| A15U G32C | 3.14e-05 ± 7.2e-06 | 6.49e-05 ± 8.6e-06 | 0.000112 ± 9.6e-06 | – |
| A15U U46C | 0.000111 ± 1.1e-05 | – | – | 2.98e-05 ± 1.3e-05 |
| A15C U46C | 0.000119 ± 1.9e-05 | 0.000176 ± 2.5e-05 | 0.000295 ± 4.8e-05 | – |
| A14C U57C U65A | < 1e-05 | – | – | – |
| A14G G38U A52C U55G | < 1e-05 | – | – | – |
| C16G G38C U56C | < 1e-05 | – | – | – |
| C16A U55C C61G C67G U69G | < 1e-05 | – | – | – |
| A14C A15C G32A A33G | < 1e-05 | – | – | – |
| A14C G41U | 0.000102 ± 1.6e-05 | – | – | – |
| G13U G37C U56C C67A C71U | < 1e-05 | – | – | – |
| G13U G44U A64C C70A | < 1e-05 | – | – | – |
| C16A G66U C68A | 0.0001 ± 3.2e-05 | – | – | – |
| G13U G51A | < 1e-05 | < 1e-05 | < 1e-05 | – |

| Variant | self-cleavage kobs at 640 uM GlcN6P (glucosamine-6-phosphate [1]) [s⁻¹] | self-cleavage kobs at 2500 uM GlcN6P (glucosamine-6-phosphate [2]) [s⁻¹] | self-cleavage kobs at 10000 uM GlcN6P (glucosamine-6-phosphate [3]) [s⁻¹] | self-cleavage kobs at 160 uM GlcN6P (glucosamine-6-phosphate [4]) [s⁻¹] |
| --- | --- | --- | --- | --- |
| C16U U57G C68U | 3.89e-05 ± 1.6e-05 | – | – | – |
| A14U U31G A39C | 0.000117 ± 2.6e-05 | – | – | 5.41e-05 ± 2e-05 |
| C16U A36U G41U | < 1e-05 | < 1e-05 | – | < 1e-05 |
| A14C G51C G59U | < 1e-05 | – | < 1e-05 | – |
| A14U G43C | < 1e-05 | < 1e-05 | < 1e-05 | – |
| A14C A23C G43C | < 1e-05 | < 1e-05 | – | < 1e-05 |
| C16U A39U | 0.00392 ± 0.00055 | 0.0111 ± 0.0017 | 0.034 ± 0.0081 | 0.00114 ± 0.00038 |
| C16A G32A C70G | 7.42e-05 ± 3e-05 | – | 0.000127 ± 3.4e-05 | – |
| C16A G51U C58A | < 1e-05 | – | – | – |
| C16U G40C U57G C67G | < 1e-05 | < 1e-05 | – | < 1e-05 |
| A14C A42C A48C G66U | < 1e-05 | < 1e-05 | – | – |
| A14C C16U G44U U69G | < 1e-05 | – | – | – |
| C16G U65A | 0.000107 ± 1.4e-05 | – | – | – |
| C16U A53G C70A | 0.000224 ± 3.5e-05 | 0.000232 ± 6.5e-05 | – | – |
| A15U G35C G38U U45G U54G | < 1e-05 | – | < 1e-05 | < 1e-05 |

Source: the supplement of paper PMC7125110
